# The whole screen tested about 310,000 compounds, of which about 2,200 (0.71%) showed an effect of 50% or more. The effect is printed as a negative number. Some of the results follow.
# Biological target: human ether-à-go-go-related gene (hERG) potassium channel (human, UniProt Q12809)
# Experiment: primary screen, population patch clamp on CHO cells stably expressing hERG
# Sequence of human ether-à-go-go-related gene (hERG) potassium channel (Q12809 whole entry, looked up): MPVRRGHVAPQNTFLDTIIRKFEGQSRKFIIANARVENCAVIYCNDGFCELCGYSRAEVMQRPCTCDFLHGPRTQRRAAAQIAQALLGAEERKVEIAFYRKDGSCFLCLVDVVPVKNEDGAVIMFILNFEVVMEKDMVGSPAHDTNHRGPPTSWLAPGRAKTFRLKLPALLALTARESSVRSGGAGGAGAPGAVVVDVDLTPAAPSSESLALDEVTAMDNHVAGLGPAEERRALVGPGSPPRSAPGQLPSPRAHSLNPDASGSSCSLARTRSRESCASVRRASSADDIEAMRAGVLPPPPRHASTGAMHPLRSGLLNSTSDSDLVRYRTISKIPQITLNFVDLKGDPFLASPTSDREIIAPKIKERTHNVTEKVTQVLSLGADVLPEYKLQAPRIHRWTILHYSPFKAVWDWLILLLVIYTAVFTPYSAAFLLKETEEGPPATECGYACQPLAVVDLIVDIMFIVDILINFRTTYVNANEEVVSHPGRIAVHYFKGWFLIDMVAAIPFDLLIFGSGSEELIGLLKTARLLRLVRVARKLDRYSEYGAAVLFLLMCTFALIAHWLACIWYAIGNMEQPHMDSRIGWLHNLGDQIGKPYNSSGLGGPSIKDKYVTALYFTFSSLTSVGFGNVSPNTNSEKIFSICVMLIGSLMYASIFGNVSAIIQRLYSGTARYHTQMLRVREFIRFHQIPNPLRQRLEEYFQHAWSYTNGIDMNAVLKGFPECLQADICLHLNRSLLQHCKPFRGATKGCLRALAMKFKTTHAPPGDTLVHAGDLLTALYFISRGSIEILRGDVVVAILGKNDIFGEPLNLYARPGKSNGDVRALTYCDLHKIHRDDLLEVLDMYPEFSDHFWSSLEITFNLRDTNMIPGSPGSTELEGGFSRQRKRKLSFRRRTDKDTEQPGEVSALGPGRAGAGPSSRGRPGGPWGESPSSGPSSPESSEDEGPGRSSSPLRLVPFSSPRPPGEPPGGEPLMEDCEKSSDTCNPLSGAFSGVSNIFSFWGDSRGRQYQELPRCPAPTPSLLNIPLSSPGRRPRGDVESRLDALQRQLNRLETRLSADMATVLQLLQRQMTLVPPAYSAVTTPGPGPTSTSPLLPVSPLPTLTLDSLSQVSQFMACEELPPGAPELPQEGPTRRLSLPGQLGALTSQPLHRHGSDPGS
row,SMILES,"hERG current change (%, negative = inhibition) at 1uM"
1,COC(=O)c1ccc(NC2=CC(=O)CC(C)(C)C2)cc1,2.48%
2,O=C(NCC1CCCCC1)c1ccccc1[N+](=O)[O-],14.1%
3,COc1ccc(/C(C)=N/Nc2ccccc2Cl)c(O)c1,11.2%
4,CCOC(=O)C/C(C)=N/NC(=O)CNc1cccc(Cl)c1C,2.16%
5,Cc1cccc(OCC(=O)Nc2ccc(S(=O)(=O)N3CCCC3)cc2)c1,-4.68%
6,COc1ccc(/C(C)=N/NC(=O)c2ccc(CSc3nncn3C)cc2)cc1,10.7%
7,CC(C)CNC(=O)C(=O)NCc1ccccc1,7.59%
8,CCn1c(=O)c([N+](=O)[O-])c(NCc2ccc3c(c2)OCO3)c2ccccc21,2.5%
9,N#CCCN1CCN(S(=O)(=O)c2ccc(S(=O)(=O)N3CCOCC3)cc2)CC1,4.63%
10,CC(=O)Nc1ccccc1C(=O)N1CCc2ccccc21,6.02%
11,CC(C)(C)NC(=O)/C(=C\c1ccco1)NC(=O)c1cccs1,8.96%
12,COc1ccc(NC(=O)C2CSC(C)(C)N2C=O)cc1 (centres unmarked),9.27%
13,Cc1ccc(S(=O)(=O)N2CCC(C(=O)Nc3ccc(S(=O)(=O)N4CCCC4)cc3)CC2)cc1C,6.29%
14,O=C(CSc1nnc(-c2ccccc2)n1Cc1ccccc1)NC1CC1,4.44%
15,Cc1ccc([N+](=O)[O-])cc1-c1ccc2cccc(C)c2n1,14.2%
16,C/C(=N\NC(=O)CCc1c[nH]c2ccccc12)c1cccc([N+](=O)[O-])c1,6.95%
17,COc1ccc(CN2CCNC(=O)C2CC(=O)N2CCCO2)c(OC)c1 (centres unmarked),15.5%
18,Cc1ccc(CN2CCCC(C(=O)c3sccc3C)C2)o1 (centres unmarked),1.92%
19,O=C(Cc1ccc(Cl)cc1)SCc1ccccc1,6.03%
20,CNCC[C@H](Oc1cccc2ccccc12)c1cccs1,2.71%
21,Cc1sc2nc(C)n(/N=C/c3ccc(O)cc3)c(=O)c2c1C,-2.57%
22,O=C(CCC(=O)c1ccccc1)Nc1ccccc1OC(F)F,12.4%
23,O=C1Nc2ccccc2C(O)(C(=O)NCc2ccco2)N1c1ccc(Cl)cc1 (centres unmarked),3.8%
24,CC(=O)/C=C(\C)Nc1ccccc1O,8.64%
25,O=S(=O)(Oc1ccc(Cl)cc1)c1cccc2cccnc12,6.15%
26,COCCCn1c(C)csc1=Nc1cccnc1,17%

# Source: PMC4336329 (PLoS ONE, 2015)
